According to PubChem BioAssay AID504332 (National Center for Advancing Translational Sciences (NCATS), 2011):
The campaign covered roughly 350,000 compounds. About 31,000 (8.9%) were called active. The shares of active, inactive and inconclusive entries below differ from those in the screen. Calls come from the whole dose curve; as a rule, active = well fitted inhibition curve with a large enough effect; inconclusive = small, poorly fitted or top-dose-only effect; inactive = no such curve, though single readings can be large or run the other way. Potencies of inconclusive entries are doubtful fits and often do not repeat.

biological target: Histone-lysine N-methyltransferase EHMT2 (Homo sapiens) (UniProt Q96KQ7); experiment: qHTS Assay for Inhibitors of Histone Lysine Methyltransferase G9a; conditions: G9a H3K9 monomethylation, AlphaScreen, 2 h; activity, negative = inhibition: at 59 µM (top of the series) unless noted; note: nearly all actives have a fitted effect of over 75% in size
UniProt Q96KQ7, sequence (Q96KQ7 whole entry, looked up): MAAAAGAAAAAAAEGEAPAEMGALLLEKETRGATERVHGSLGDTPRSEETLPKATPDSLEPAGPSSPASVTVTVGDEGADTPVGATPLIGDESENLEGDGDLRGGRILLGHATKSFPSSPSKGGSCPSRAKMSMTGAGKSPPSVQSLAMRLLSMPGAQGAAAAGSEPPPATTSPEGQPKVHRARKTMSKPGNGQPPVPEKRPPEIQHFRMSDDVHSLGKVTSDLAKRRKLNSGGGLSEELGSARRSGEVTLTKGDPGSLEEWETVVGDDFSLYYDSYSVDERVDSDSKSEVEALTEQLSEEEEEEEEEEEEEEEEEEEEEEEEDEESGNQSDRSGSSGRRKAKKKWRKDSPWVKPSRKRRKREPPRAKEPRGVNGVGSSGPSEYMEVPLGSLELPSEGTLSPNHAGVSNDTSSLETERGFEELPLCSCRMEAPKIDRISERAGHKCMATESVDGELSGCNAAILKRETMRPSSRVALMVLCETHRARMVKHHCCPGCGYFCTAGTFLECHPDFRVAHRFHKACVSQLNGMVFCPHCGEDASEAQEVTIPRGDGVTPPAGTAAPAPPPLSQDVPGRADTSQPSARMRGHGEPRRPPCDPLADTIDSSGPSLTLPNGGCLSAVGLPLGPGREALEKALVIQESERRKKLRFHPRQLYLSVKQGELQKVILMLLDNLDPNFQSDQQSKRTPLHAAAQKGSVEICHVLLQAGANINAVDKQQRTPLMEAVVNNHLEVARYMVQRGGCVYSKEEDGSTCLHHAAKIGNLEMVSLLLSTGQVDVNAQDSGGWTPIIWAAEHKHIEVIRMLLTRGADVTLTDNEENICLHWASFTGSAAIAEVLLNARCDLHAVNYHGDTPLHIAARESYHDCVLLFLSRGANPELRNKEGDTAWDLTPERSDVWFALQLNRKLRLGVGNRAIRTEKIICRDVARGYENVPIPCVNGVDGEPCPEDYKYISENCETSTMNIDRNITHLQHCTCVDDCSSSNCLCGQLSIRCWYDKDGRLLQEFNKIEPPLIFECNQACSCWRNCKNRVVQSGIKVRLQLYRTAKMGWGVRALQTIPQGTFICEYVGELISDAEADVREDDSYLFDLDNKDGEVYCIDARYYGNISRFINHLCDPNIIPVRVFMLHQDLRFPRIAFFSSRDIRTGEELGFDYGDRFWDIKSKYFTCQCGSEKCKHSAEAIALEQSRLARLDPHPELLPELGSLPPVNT
Summary of the method: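 Signal arises when biotinylated H3K9 peptide, once monomethylated, bridges streptavidin donor and antibody-captured acceptor beads. Enzyme at 20 nM was preincubated 15 min with test compounds; peptide 500 nM and SAM 20 uM then reacted for 2 h.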
% is set by controls: 0 for no effect and ±100 for the full control effect; potency is the fitted concentration of half-maximal effect; tags give direction and shape of the fitted curve.

SMILES | Potency | activity, negative = inhibition
O=C(Nc1ccc(C(=O)N2CCCC2)cc1)c1ccccc1F | inconclusive: 35.5 µM [inhibitor, partial curve, poor fit] | 
CO/C=C\C=C/c1nnn(-c2ccc(Cl)cc2)n1 | active: 50.1 µM | 
CCOc1ccc(NC(=O)[C@@H]2CCCN2C(=O)c2cccs2)cc1S(=O)(=O)N1CCOCC1 | inconclusive: 6.31 µM [inhibitor, single point] | 
N#CC(=C=[N-])C1=C(C#N)C(c2ccccc2F)C([n+]2ccccc2)C(O)(C2CC2)N1 (stereo not drawn) | inconclusive: 3.55 µM [inhibitor, partial curve, poor fit] | 
CC(=O)Nc1ccc(S(=O)(=O)NC2(C(F)(F)F)C(=O)Nc3c2c(=O)[nH]c(=O)n3C)cc1 (stereo not drawn) | inactive | 
CCc1nnc(N/N=C/c2ccc(-c3ccc([N+](=O)[O-])cc3)o2)n1N | inconclusive: 56.2 µM [inhibitor, partial curve, poor fit] | 
O=C(O)c1cccc(NC(=S)N/N=C/c2ccccc2OCc2ccc(Br)cc2)c1 | inconclusive: 50.1 µM [inhibitor, partial curve, poor fit] | 
COc1ccc2c(Sc3ccc(C)cc3)c(C(=O)NC(C)c3ccccc3)[nH]c2c1 (stereo not drawn) | inconclusive: 39.8 µM [inhibitor, single point] | 
COc1ccc(NC(C)C(=O)N/N=C/c2cc(Br)ccc2OC)cc1 (stereo not drawn) | inconclusive: 5.01 µM [inhibitor, partial curve, poor fit] | 
O=C(O)CCSCC(=O)c1ccc2c(c1)OCCO2 | active: 31.6 µM | 
COc1cc([C@@H]2Nc3c(F)cccc3[C@@H]3C=CC[C@@H]32)cc(Br)c1OC | inactive | 
Cc1c(C(=O)O)oc2c1-c1nn(Cc3ccccc3Cl)cc1CC2 | inconclusive: 28.2 µM [inhibitor, single point] | 
CC(C)(C)SCCNC(=O)c1cccc([N+](=O)[O-])c1 | inactive | 
CC(C)c1ccc(NC(=O)Nc2cc3sccc3n2C)cc1 | inconclusive: 25.1 µM [inhibitor, single point] | 
CC(=O)c1ccc(NC(=O)c2cc3c(=O)oc4ccc(C)cc4c3s2)cc1 | inactive | 
CC(C)c1ccc(NC(=S)NN2C(C)CCCC2C)cc1 (stereo not drawn) | inactive | 
COc1ccc(CC(C)Nc2cccc(SC)c2)cc1 (stereo not drawn) | inconclusive: 15.8 µM [inhibitor, single point] | 
CCOC(=O)CCNC(=O)N1CCN(S(=O)(=O)c2ccc3c(ccn3C)c2)CC1 | inactive | 
O=C(O)CCC(=O)Nc1ccc(C(=O)N2CCCCC2)cc1 | inactive | 
COc1ccc(S(=O)(=O)N2CCN(C(=O)Cc3ccsc3)CC2)cc1 | inconclusive: 28.2 µM [inhibitor, partial curve, poor fit] | 
O=C(NCc1ccco1)c1sc2ccccc2c1Cl | inconclusive: 39.8 µM [inhibitor, single point] | 
CCN1CCN(c2nc(-c3cccnc3)nc3ccccc23)CC1 |  | inconclusive: -78% [inhibitor]
CCN1CCN(c2ccc(NC(=O)c3ccccc3F)cc2Cl)CC1 | inactive | 

SMILES | Potency | activity, negative = inhibition
COC/C=C/C1=CC2=CC(=O)C(C)(OC(=O)c3ccco3)C(=O)C2=CO1 (stereo not drawn) | inconclusive: 28.2 µM [inhibitor, single point] | 
COc1ccc(N2CCN(C(=O)c3nc4nc(C)cc(C)n4n3)CC2)cc1 | inconclusive: 44.7 µM [inhibitor, partial curve, poor fit] | 
CCOC(=O)c1cccnc1SCC(=O)Nc1ccc(C)cc1 | inconclusive: 50.1 µM [inhibitor, partial curve] | 
CCC1C(=O)c2ccccc2N(C)C1=O (stereo not drawn) | inactive | 
OCCN(CCCn1c(C(F)(F)F)nc2ccccc21)c1nc(CN2CCCCC2)cs1 | inactive | 
Cc1cccc(C)c1NC(=O)C[N+](C)(C)CC(O)COc1cccc2ccccc12 (stereo not drawn) | inconclusive: 50.1 µM [inhibitor, partial curve, poor fit] | 
C=CCc1cccc2ccc(=O)oc12 | inactive | 
COc1ccc(NC(=O)C2=CC(c3ccc4c(c3)OCO4)=NS(=O)(=O)N2C)cc1OC | inactive | 
CCc1cc[n+](-c2nc3ccccc3nc2[N-]S(=O)(=O)c2ccc(Br)s2)cc1 | inconclusive: 0.794 µM [inhibitor, full curve, poor fit] | 
COc1ccccc1COCC(O)CNCC1(N2CCCCC2)CCCCC1 (stereo not drawn) | active: 4.47 µM | 
CCOc1ccccc1N1Cc2ccccc2C1 | inconclusive: 1.58 µM [inhibitor, full curve, poor fit] | 
CCOC(=O)Cc1nnc(Nc2ccc(C)cc2C)c2ccccc12 | inconclusive: 10 µM [inhibitor, partial curve, poor fit] | 
COc1ccc(C(=O)NC(=S)Nc2cccc(Cl)c2N2CCOCC2)cc1[N+](=O)[O-] | inconclusive: 39.8 µM [inhibitor, partial curve, poor fit] | 
O=C(c1ccc2c(=O)n(CC3CCCO3)c(=S)[nH]c2c1)N1CCN(c2ccccc2)CC1 (stereo not drawn) | inactive | 
COc1cc(/C=C2/C(=O)NN(c3ccc(Cl)cc3)C2=O)cc(OC)c1O | inconclusive: 3.98 µM [inhibitor, full curve, poor fit] | 
Cn1cccc1Cc1nnc(SCC(=O)Nc2cccc(F)c2)n1CCc1ccccc1 | active: 44.7 µM | 
NS(=O)(=O)c1ccc(NC(=O)CCCCCN2C(=O)c3ccccc3C2=O)cc1 | inactive | 
COc1cc(COCC(O)CN2CCN(CCN3C(=O)c4cccc5cccc(c45)C3=O)CC2)cc(OC)c1OC (stereo not drawn) | inconclusive: 50.1 µM [inhibitor, partial curve, poor fit] | 
CN1CCN(S(=O)(=O)c2ccc(NC(=S)NC(=O)C3CCC3)cc2)CC1 | inconclusive: 39.8 µM [inhibitor, single point] | 
CC(NC(=O)CSc1nc2sc3c(c2c(=O)n1-c1ccccc1)CCCC3)c1ccccc1 (stereo not drawn) | inactive | 
O=C(O)C(Cc1ccccc1)N1C(=O)/C(=C/c2ccccc2)SC1=S (stereo not drawn) | inconclusive: 25.1 µM [inhibitor, single point] | 
O=P(O)(O)OC[C@H]1O[C@](O)(COP(=O)(O)O)[C@@H](O)[C@@H]1O |  | inactive: 2.1% [at 12.7 µM]
Cc1cc(F)ccc1S(=O)(=O)Nc1cc2c(C(=O)O)c(C)oc2c2ccccc12 | inactive | 

SMILES | Potency | activity, negative = inhibition
CCOC(=O)c1c(C)oc2ccc(N(C(C)=O)S(=O)(=O)c3c(C)cc(C)cc3C)cc12 | inactive | 
COc1ccc(OC)c(CC2C(=O)Nc3ccc(Br)cc32)c1 (stereo not drawn) | inconclusive: 28.2 µM [inhibitor, partial curve, poor fit] | 
COc1ccc(NC(=S)NCC2CCN(c3ccc(OC)cc3)C2)cc1 (stereo not drawn) | inconclusive: 3.55 µM [inhibitor, partial curve, poor fit] | 
CC1CC(C)CN(c2oc(-c3ccccc3F)nc2C#N)C1 (stereo not drawn) | inconclusive: 79.4 µM [inhibitor, partial curve, poor fit] | 
O=Cc1ccc(-c2ccccc2C(=O)O)o1 | inconclusive: 50.1 µM [inhibitor, partial curve, poor fit] | 
C/C=C\C=C\C(=O)N1CC2(CC(c3cccc(NC(=O)COc4ccc(Cl)cc4)c3)=NO2)C[C@H]1C(N)=O (stereo partly drawn) | inconclusive: 3.16 µM [inhibitor, single point] | 
COc1ccc(Oc2nc3c(c(=O)n(C)c(=O)n3C)n2Cc2ccc(Cl)cc2Cl)cc1 | inactive | 
O=C(NC1CCCCC1)c1ccc(N2CCOCC2)c([N+](=O)[O-])c1 | inactive | 
CC1=C(C(=O)OC(C)C)C(c2cccc([N+](=O)[O-])c2)n2c(cc(=O)[nH]c2=S)N1 (stereo not drawn) | inconclusive: 3.55 µM [inhibitor, partial curve, poor fit] | 
CCOC(=O)C1CCCN(C(=O)c2cc(Nc3ccc(OC)cc3OC)nc3ccccc23)C1 (stereo not drawn) | inconclusive: 28.2 µM [inhibitor, single point] | 
CCN(CC)CCN1C(=O)C2C(C(=O)Nc3cccc(C)c3)C3C=CC2(O3)C1C(=O)NC1CCCC(C)C1C (stereo not drawn) | inconclusive: 89.1 µM [inhibitor, single point] | 
N#C/C(C(N)=O)=C1/CCc2ccccc2N1 | inconclusive: 89.1 µM [inhibitor, single point] | 
O=C(Nc1ccccc1C(=O)OCc1cc(=O)n2ccsc2n1)c1ccccc1Cl |  | inactive: -6.43% [at 12.7 µM]
CC1(C)CC(=O)C2=C(C1)OC(N)=C(C#N)C21C(=O)N(Cc2ccccc2Cl)c2ccccc21 (stereo not drawn) | inactive | 
Cc1nn(-c2ccccn2)c2nc(-c3cccs3)cc(C(=O)NCc3ccco3)c12 | active: 44.7 µM | 
O=C(Nc1cccc(OCc2cc(=O)n3ccccc3n2)c1)Nc1cccc(C(F)(F)F)c1 | inactive | 
CC(=O)Nc1ccc(SCC(=O)c2cc(C)n(-c3ccccc3)c2C)cc1 | inconclusive: 17.8 µM [inhibitor, single point] | 
NS(=O)(=O)c1ccc(CCNC(=O)c2cc(-c3ccco3)nc3ccccc23)cc1 | inconclusive: 3.16 µM [inhibitor, single point] | 
COc1cccc(OCc2nnc(SCC(=O)NCc3ccco3)n2CCc2ccccc2)c1 | inconclusive: 35.5 µM [inhibitor, single point] | 
CCN1CCN(C(=S)c2ccc([N+](=O)[O-])cc2)CC1 | active: 10 µM | 
CN(C)CCNC(=O)c1ccccc1 | inconclusive: 89.1 µM [inhibitor, single point] | 
CCOc1ccccc1CNC(=O)c1oc2c(c1C)-c1nn(Cc3cccc(Cl)c3)cc1CC2 | inconclusive: 8.91 µM [inhibitor, partial curve] | 
